From paper PMC6249242, “Metabolic engineering of Escherichia coli for de novo biosynthesis of vitamin B12” (Nature Communications, 2018)

Target: PduX (Salmonella enterica, UniProt Q9XDM4)
Assay: E. coli expressing pduX, HPLC of Thr-P in culture
Format: cell-based
Conditions: M9Y medium, 5 g/l L-threonine, 28 °C

Chain of UniProt Q9XDM4 (Q9XDM4 whole entry): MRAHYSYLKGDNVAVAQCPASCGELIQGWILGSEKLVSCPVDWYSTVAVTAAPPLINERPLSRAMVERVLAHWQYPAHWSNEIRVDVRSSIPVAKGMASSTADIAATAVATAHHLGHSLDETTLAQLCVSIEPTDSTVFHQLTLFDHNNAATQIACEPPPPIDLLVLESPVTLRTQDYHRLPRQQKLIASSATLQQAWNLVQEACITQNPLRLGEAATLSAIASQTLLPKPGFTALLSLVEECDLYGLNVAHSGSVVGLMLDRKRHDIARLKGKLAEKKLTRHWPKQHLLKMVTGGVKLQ

## C[C@@H](O)[C@H](N)C(=O)O [L-threonine]
  E. coli expressing pduX, HPLC of Thr-P in culture: BluE/PduX strains FH296/FH298 both produced L-threonine O-3-phosphate (Thr-P) (HPLC analysis)
